Test results taken from PubChem BioAssay AID485281 (National Center for Advancing Translational Sciences (NCATS), 2010).
Hit rate of the full screen: of about 350,000 compounds, about 260 (0.074%) were called active. The inconclusive results got no clear call from the source; some entries with a clear call stand among them for comparison. The call rests on the fitted dose curve; in most records, active means well fitted inhibition curve with a large enough effect; inconclusive means small, poorly fitted or top-dose-only effect; inactive means no such curve, though single readings can be large or run the other way. A potency beside an inconclusive call is a rough fit, not a confirmed value.

Molecular target: Ferritin light chain (Equus caballus) (UniProt P02791)
Test: qHTS Assay for Identification of Novel General Anesthetics; further: nearly all actives have a fitted effect of over 20% in size
Conditions: apoferritin/1-aminoanthracene competitive binding, fluorescence; series mostly up to 77.5 µM
How it was run: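 Concentration-response curves derived by four-parameter Hill fitting of normalized fluorescence, where compounds displaced 1-AMA from 10 uM horse apoferritin following a brief 10 min room-temperature incubation; propofol titration acted as positive control.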
Potency means the concentration at half of the fitted maximal effect; tags describe the fitted curve by direction and shape.

Sequence of UniProt P02791 (P02791 whole entry, looked up): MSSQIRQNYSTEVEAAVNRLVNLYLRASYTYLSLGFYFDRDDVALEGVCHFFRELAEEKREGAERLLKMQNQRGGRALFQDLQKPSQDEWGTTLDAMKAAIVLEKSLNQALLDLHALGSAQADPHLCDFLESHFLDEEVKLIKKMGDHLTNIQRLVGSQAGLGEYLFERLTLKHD

Row | Structure (SMILES) | Potency
1 | N#C/C(=C\c1ccccc1OCc1ccc(C(=O)O)cc1)C(=O)Nc1ccc(O)cc1 | inactive
2 | COc1ccc(C(=O)/C(C#N)=N/Nc2cccc([N+](=O)[O-])c2)cc1 | inactive
3 | O=[N+]([O-])c1cccnc1N1CCC(c2cc(-c3ccc(Cl)cc3Cl)n[nH]2)CC1 | inconclusive: 28.2 µM [inhibitor, partial curve]
4 | O/N=C1\CCC\C1=C/c1ccco1 | inconclusive: 35.5 µM [inhibitor, partial curve]
5 | O=C(CC(=O)Nc1ccc(Cl)cc1Cl)Nc1ccc(Cl)cc1Cl | inactive
6 | COc1cccc(NC(=O)c2c(-c3ccc(C)cc3)nnc3ccccc23)c1 | inconclusive: 20 µM [inhibitor, partial curve]
7 | Cc1cc(OC(C)C(=O)NCC(O)c2ccccc2)c2c(C)c(C)c(=O)oc2c1 (centres undefined) | inconclusive: 28.2 µM [inhibitor, single point]
8 | COc1cccc(N2CC(C(=O)Nc3nnc(SCCN4CCOCC4)s3)CC2=O)c1 (centres undefined) | inconclusive: 20 µM [inhibitor, partial curve]
9 | Cc1cc2c(cc1C)[n+](C)cn2CC(O)COCc1ccccc1 (centres undefined) | inactive
10 | CC1CC=CC2C1C(=O)N(Cc1ccccc1)C2c1cccc([N+](=O)[O-])c1 (centres undefined) | inconclusive: 31.6 µM [inhibitor, partial curve]
11 | Cc1ccc(CN2CCN(Cc3ccc(C)s3)CC2CCO)cc1 (centres undefined) | inactive
12 | Cc1ccc(C)c(NC(=O)Nc2nnc(N(CC(C)C)CC(C)C)s2)c1 | inconclusive: 39.8 µM [inhibitor, single point]
13 | COc1ccc(Nc2ncccc2C(=O)Nc2ccccc2)cc1 | inconclusive: 22.4 µM [inhibitor, partial curve]
14 | O=C(Nc1ccc(C(F)(F)F)cc1)c1cc(S(=O)(=O)NC2CCCCCC2)ccc1F | inconclusive: 7.94 µM [inhibitor, full curve]
15 | COc1cc(CNC(C)(C)CO)cc(Br)c1OCc1ccc(Cl)cc1Cl | inconclusive: 15.8 µM [inhibitor, partial curve]
16 | O=C(OC1CCCCC1)c1ccc(NC(=O)C2CCCCC2)cc1 | inconclusive: 11.2 µM [inhibitor, single point]
17 | COc1ccc(Nc2ccc([N+](=O)[O-])cc2[N+](=O)[O-])cc1 | inconclusive: 31.6 µM [inhibitor, partial curve]
18 | Cc1ccc(C(=O)Nc2nc(C(C)(C)C)cs2)s1 | inconclusive: 35.5 µM [inhibitor, partial curve]
19 | O=C(Nc1nc2c(s1)CCCC2)c1ccc2ncsc2c1 | inactive
